This note sets out measurements from PubChem BioAssay AID360 (National Center for Advancing Translational Sciences (NCATS), 2006).

About 550 (1.1%) of roughly 48,000 compounds were called active. Inconclusive results (about 4%) are left out. Rule as the data show it: active = potency below about 15 µM; inconclusive = mostly about 16 µM to 33 µM; inactive = weaker than that. Some of the results follow. A value given as a limit tells only on which side of the number the result lay.
Potency is read from the fitted curve at half-maximal effect.

The assay deals with Lysosomal acid glucosylceramidase (Homo sapiens) (UniProt P04062). Kind of assay: Glucocerebrosidase.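 Also: the screen sought inhibitors.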 The conditions noted are these: purified enzyme, resorufin glucoside fluorescence (screen aimed at inhibitors), 20 min. In a few lines: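 Normal human glucocerebrosidase (0.2 nM final) was assayed with resorufin β-D-glucopyranoside (30 uM final) in 50mM citric acid/KH2PO4, 10mM sodium taurocholate, 0.01% tween-20, pH 5.9. Compounds were titrated; fluorescence (Ex 548, Em 600) read after 20 min at RT.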
Sequence of UniProt P04062 (P04062 whole entry, looked up): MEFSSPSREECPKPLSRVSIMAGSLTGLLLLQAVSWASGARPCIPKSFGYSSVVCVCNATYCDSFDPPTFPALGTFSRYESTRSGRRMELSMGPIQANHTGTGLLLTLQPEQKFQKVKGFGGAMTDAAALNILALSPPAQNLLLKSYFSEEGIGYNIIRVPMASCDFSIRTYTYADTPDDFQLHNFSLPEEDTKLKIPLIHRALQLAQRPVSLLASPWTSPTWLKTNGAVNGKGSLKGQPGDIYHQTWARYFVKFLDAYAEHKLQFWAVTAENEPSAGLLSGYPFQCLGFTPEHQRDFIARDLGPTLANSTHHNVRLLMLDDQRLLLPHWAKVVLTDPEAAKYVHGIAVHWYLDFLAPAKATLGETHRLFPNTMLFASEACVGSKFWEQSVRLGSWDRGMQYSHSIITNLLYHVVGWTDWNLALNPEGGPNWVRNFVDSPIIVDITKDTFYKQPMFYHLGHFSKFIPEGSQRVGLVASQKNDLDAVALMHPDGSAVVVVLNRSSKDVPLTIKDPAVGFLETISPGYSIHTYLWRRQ
Turning to `CC1Cc2ccccc2N1C(=O)Cn1nc(C(=O)O)c2ccccc2c1=O` (stereo not given), the Potency is inactive: > 76.9 µM.

In the case of `CC(OC(=O)c1cc2sccc2n1C)C(=O)NCc1ccc2c(c1)OCO2` (stereo not given), the Potency was inactive: > 76.9 µM.

As for `O=C(NCCc1ccccc1)C1CCN(S(=O)(=O)c2ccc(-n3cnnn3)cc2)CC1`, the Potency was inactive: > 76.9 µM.

For `COc1ccc2[nH]c(=O)c(CNC3CCCCC3)cc2c1`, the Potency was inactive: > 76.9 µM.

For the compound `CCOC(=O)C1=C(C)NC(=O)CC1c1ccccc1` (stereo not given), the Potency is inactive: > 76.9 µM.

Take `O=C(NCc1cccnc1)c1ccc2c(c1)OCO2`: the Potency was inactive: > 76.9 µM.

Turning to `Cc1nc2ccc(NC(=O)N3CCSCC3)cc2s1`, the Potency was inactive: > 76.9 µM.

For `O=C(O)CCCCCNS(=O)(=O)c1c(Cl)cccc1Cl`, the Potency was inactive: > 76.9 µM.

Regarding `O=C(c1ccccc1)c1ccccc1C(=O)N1CCOCC1`, the Potency is inactive: > 76.9 µM.

`CCn1c2ccccc2c2cc(NC(=O)N3CCOCC3)ccc21`: the Potency is inactive: > 76.9 µM.

Take `O=C(CCCSc1nc2ccccc2[nH]1)NC1=NCCS1`: the Potency entry is “inactive”.

Consider `COC(=O)C1=C(C)N(c2ccc(C(=O)OC)cc2)C(=O)C1`, for which the Potency was inactive: > 76.9 µM.

As to `CC(C)C(c1nnnn1Cc1ccco1)N1CCN(c2nc3ccccc3s2)CC1` (stereo not given), the Potency is inactive: > 76.9 µM.

As for `CNC(=O)c1cccc(N2CCCC2=O)c1`, the Potency is inactive: > 76.9 µM.

For `Cc1noc(C)c1CSc1nnc2c(C)cc3ccccc3n12`, the Potency was inactive: > 76.9 µM.

For `Nc1nc(SCCOc2ccccc2)n[nH]1`, the Potency is inactive: > 76.9 µM.

For the compound `O=C(CSc1nc(-c2ccco2)cc(C(F)(F)F)n1)NCc1cccs1`, the Potency is inactive: > 76.9 µM.

For the compound `CCCS(=O)(=O)N1CCN(Cc2ccccc2C(F)(F)F)CC1`, the Potency is inactive: > 76.9 µM.

Take `CC(=O)NS(=O)(=O)c1ccccc1`: the Potency is inactive: > 76.9 µM.

Turning to `COc1cc2c(cc1OC)C(C(=O)NCC1COc3ccccc3O1)C(c1cccnc1)N(C)C2=O` (stereo not given), the Potency was inactive: > 76.9 µM.

With `COc1cc(NC(=O)c2cc3nc(C)cc(C)n3n2)c(OC)cc1Cl`, the Potency entry was “inactive”.

Take `COC(=O)[C@@H](NC(=O)NCc1cccs1)C(C)C`: the Potency was inactive: > 76.9 µM.

For the compound `CC(=O)Nc1cc(S(=O)(=O)C(F)(F)F)ccc1Cl`, the Potency is inactive: > 76.9 µM.

Take `CC(C)(C)n1ncc2c(=O)n(CC(=O)NCc3ccccc3)cnc21`: the Potency was inactive: > 76.9 µM.

Regarding `CC(C)c1ccccc1NC(=O)c1cccnc1`, the Potency was inactive: > 76.9 µM.

On to `O=C(CSC1=NCCS1)N1CCN(c2ccccc2)CC1`, for which the Potency is inactive: > 76.9 µM.

As for `CCN(CC)C(=O)c1sc2nc(-c3ccc(OC)cc3)cn2c1C`, the Potency is inactive: > 76.9 µM.

In the case of `CCn1c(SCC(=O)c2cc(OC)ccc2OC)nc2c1c(=O)n(C)c(=O)n2C`, the Potency is inactive: > 76.9 µM.

Take `CC1CCc2c(sc3c2C2=NS(=O)(=O)CCN2C=N3)C1` (stereo not given): the Potency was inactive: > 76.9 µM.

As for `Cc1cc(C(=O)CSc2nnc(-c3ccco3)o2)c(C)n1Cc1ccco1`, the Potency is inactive: > 76.9 µM.

Consider `COc1ccc(CCN2CC34C=CC(O3)C(C(=O)NCc3ccccc3)C4C2=O)cc1OC` (stereo not given), for which the Potency was inactive: > 76.9 µM.

As for `O=C(CC(SCCO)c1ccc2c(c1)OCO2)c1ccco1` (stereo not given), the Potency was inactive: > 76.9 µM.

As for `O=C(O)CCC(=O)OC1CC2CCC1C2` (stereo not given), the Potency is inactive: > 76.9 µM.

As to `Fc1ccc(-c2csc3nnc(SCc4cccnc4)n23)cc1`, the Potency is inactive: > 76.9 µM.

On to `CC1CC(C)CN(C(=O)COC(=O)CNS(=O)(=O)/C=C/c2ccccc2)C1` (stereo not given), for which the Potency was inactive: > 76.9 µM.

Consider `N#Cc1nc(Cc2ccccc2)oc1N1CCC(Cc2ccccc2)CC1`, for which the Potency was inactive: > 76.9 µM.

For `O=C(CSc1nc2nc[nH]c2c(=O)[nH]1)NC1CCCCC1`, the Potency was inactive: > 76.9 µM.

As for `CCN(C#N)c1nc(NC(C)C)nc(NC(C)C)n1`, the Potency was inactive: > 76.9 µM.

For `c1ccc(-c2noc(-c3ccc4c(c3)OCO4)n2)nc1`, the Potency was inactive: > 76.9 µM.

For `Cc1cccc(C(C)C)c1NC(=O)c1cccnc1`, the Potency is inactive: > 76.9 µM.

Regarding `CN(Cc1ccccc1)Cc1nc2c(c(=O)n(C)c(=O)n2C)n1CCc1ccccc1`, the Potency is inactive: > 76.9 µM.

As for `COc1cc2nc(C3CCC3)n(NC(=O)COc3ccccc3)c(=O)c2cc1OC`, the Potency is inactive: > 76.9 µM.

For `C=COCCNC(=O)Nc1ccc(Cl)cc1Cl`, the Potency was inactive: > 76.9 µM.

`CCN(C(=O)c1coc(=O)c(Br)c1)c1ccc2c(c1)OCO2`: the Potency is inactive: > 76.9 µM.

In the case of `Cc1ccccc1CSc1nc2n(n1)C(c1cccs1)C1=C(CCCC1=O)N2` (stereo not given), the Potency was inactive: > 76.9 µM.

As to `O=C(NCCC1=CCCCC1)c1ccc(Br)o1`, the Potency was inactive: > 76.9 µM.

`Cc1cc(-c2ccccc2C(=O)O)on1`: the Potency was inactive: > 76.9 µM.

In the case of `Cc1ccc(-c2ccc(C(=O)O)[nH]2)cc1`, the Potency is inactive: > 76.9 µM.

Take `COc1ccccc1-n1c(SCC(=O)NC(C)(C)C)nc(O)cc1=O`: the Potency is inactive: > 76.9 µM.

With `CCOC(=O)c1sc(NC(=O)CSc2nc(-c3ccco3)cc(C(F)(F)F)n2)c(C#N)c1C`, the Potency is inactive: > 76.9 µM.

In the case of `COc1ccc(C2C=C(c3ccccc3)Nc3nc(CCCO)nn32)cc1` (stereo not given), the Potency is inactive: > 76.9 µM.

Regarding `CC1CCCCC1NC(=O)CSc1nnc(CN2CCOCC2)n1C` (stereo not given), the Potency was inactive: > 76.9 µM.

For `Cc1csc(NC(=O)CCc2nc3ccccc3s2)n1`, the Potency is inactive: > 76.9 µM.

For `Cc1nnc(Sc2cc(C(=O)NCc3ccco3)c3ccccc3n2)s1`, the Potency is inactive: > 76.9 µM.

For the compound `CCN(C(=O)CSc1nnnn1-c1cc(C)ccc1OC)C1CCS(=O)(=O)C1` (stereo not given), the Potency is inactive: > 76.9 µM.

Turning to `COc1ccc(S(=O)(=O)N2CCCCC2)cc1C(C)C`, the Potency is inactive: > 76.9 µM.

On to `Cc1cc(C)n(C(=O)c2ccc(S(=O)(=O)NCC3CCCO3)cc2)n1` (stereo not given), for which the Potency was inactive: > 76.9 µM.

As for `COc1ccccc1N1CCN(C(=O)c2ccc(S(=O)(=O)N3CCCCC3)cc2)CC1`, the Potency was inactive: > 76.9 µM.

Consider `O=C(Nc1ccccc1F)C1C2C=CC3(O2)C1C(=O)N(c1cccnc1)C3C(=O)NC1CCCCC1` (stereo not given), for which the Potency is inactive: > 76.9 µM.

Take `CCN(CC)S(=O)(=O)c1ccc(C(=O)OCn2nnc3ccccc3c2=O)cc1`: the Potency is inactive: > 76.9 µM.
